{"source": "the BET-seq Pho4 binding data (Le et al. 2018)", "note": "The other results are listed elsewhere or left out. The energies were worked out here from pooled read counts, against the library average; single values are noisy.", "data": [{"molecular_target": "T1, Pho4 (S. cerevisiae) (UniProt P07270)", "T1 sequence": "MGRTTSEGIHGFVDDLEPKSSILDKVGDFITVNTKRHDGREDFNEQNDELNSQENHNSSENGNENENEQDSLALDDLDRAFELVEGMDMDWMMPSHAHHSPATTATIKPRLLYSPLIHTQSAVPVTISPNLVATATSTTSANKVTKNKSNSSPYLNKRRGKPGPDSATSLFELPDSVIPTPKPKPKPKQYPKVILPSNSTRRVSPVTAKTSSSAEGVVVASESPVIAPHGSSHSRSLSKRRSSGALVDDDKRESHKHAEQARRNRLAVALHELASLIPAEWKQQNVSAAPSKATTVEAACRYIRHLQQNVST", "test": "relative binding free energy (BET-seq); higher = weaker binding", "settings": "reference: library average", "units": {"relative binding free energy": "kcal/mol"}, "values": [{"sequence": "GGGTGCACGTGTGTTC", "relative binding free energy": 0.1}, {"sequence": "TAGAACACGTGGGGGC", "relative binding free energy": -0.06}, {"sequence": "CGGGGCACGTGTGTGA", "relative binding free energy": -0.05}, {"sequence": "TTCGTCACGTGCGGGG", "relative binding free energy": 0.15}, {"sequence": "CTTGTCACGTGTGTAA", "relative binding free energy": 0.19}, {"sequence": "CGTTGCACGTGATTTG", "relative binding free energy": 0}, {"sequence": "ATTCGCACGTGGGGTG", "relative binding free energy": -0.15}, {"sequence": "TGTAGCACGTGTTAGA", "relative binding free energy": 0.01}, {"sequence": "GCGTGCACGTGACGGT", "relative binding free energy": 0.23}, {"sequence": "TGGCTCACGTGGAGGA", "relative binding free energy": 0.14}, {"sequence": "GTTGTCACGTGGGATT", "relative binding free energy": 0.18}, {"sequence": "TGGTTCACGTGGATTC", "relative binding free energy": 0.4}, {"sequence": "GGGAGCACGTGATGAT", "relative binding free energy": 0.16}, {"sequence": "TGTAGCACGTGGGCCT", "relative binding free energy": -0.22}, {"sequence": "TTGTGCACGTGATGCA", "relative binding free energy": 0.08}, {"sequence": "AGATACACGTGAAAGG", "relative binding free energy": 0.37}, {"sequence": "TTTGGCACGTGTTCAA", "relative binding free energy": -0.08}, {"sequence": "GTGAGCACGTGATGAG", "relative binding free energy": 0.14}, {"sequence": "GGTTACACGTGGGACA", "relative binding free energy": 0.03}, {"sequence": "CTTTTCACGTGTGCTA", "relative binding free energy": 0.27}, {"sequence": "GTGTACACGTGTCGGA", "relative binding free energy": 0.14}, {"sequence": "ATTAGCACGTGTGATT", "relative binding free energy": 0}, {"sequence": "TGATACACGTGGAGGG", "relative binding free energy": 0}, {"sequence": "GTTTCCACGTGGCGGT", "relative binding free energy": 0.09}, {"sequence": "GTATGCACGTGGGTCA", "relative binding free energy": -0.24}, {"sequence": "TGGAGCACGTGGCCGT", "relative binding free energy": -0.2}, {"sequence": "TGAGACACGTGGAGGG", "relative binding free energy": 0.06}, {"sequence": "TGACGCACGTGAGGTG", "relative binding free energy": 0.02}, {"sequence": "TTCTACACGTGAGTGA", "relative binding free energy": 0.29}, {"sequence": "GTATGCACGTGGTCTT", "relative binding free energy": -0.11}, {"sequence": "GATTACACGTGTGGGG", "relative binding free energy": 0.2}, {"sequence": "GTGTTCACGTGATGTA", "relative binding free energy": 0.29}, {"sequence": "TGCGTCACGTGGGCTA", "relative binding free energy": -0.07}, {"sequence": "TGTCGCACGTGGGACT", "relative binding free energy": -0.17}, {"sequence": "TGATGCACGTGTCCGT", "relative binding free energy": -0.04}, {"sequence": "TCCGGCACGTGAGAGG", "relative binding free energy": 0.23}, {"sequence": "TGGAGCACGTGGTAGC", "relative binding free energy": -0.07}, {"sequence": "TACAGCACGTGTATGT", "relative binding free energy": 0}, {"sequence": "AGTCTCACGTGCTGGT", "relative binding free energy": 0.17}, {"sequence": "GTGCGCACGTGGGCTG", "relative binding free energy": -0.2}, {"sequence": "GGGGCCACGTGTCCGG", "relative binding free energy": -0.06}, {"sequence": "TTTTTCACGTGCTGGC", "relative binding free energy": 0.21}, {"sequence": "AAATTCACGTGTAGTA", "relative binding free energy": 0.33}, {"sequence": "CATGTCACGTGGAATG", "relative binding free energy": 0.25}, {"sequence": "TATGGCACGTGGGCGG", "relative binding free energy": -0.23}, {"sequence": "TTTATCACGTGAGCGG", "relative binding free energy": 0.19}, {"sequence": "TTGCGCACGTGTAGAG", "relative binding free energy": -0.16}, {"sequence": "AGGCACACGTGCTGGG", "relative binding free energy": -0.03}, {"sequence": "AGAGGCACGTGTTTAT", "relative binding free energy": -0.15}, {"sequence": "TGTCACACGTGTATTG", "relative binding free energy": 0}, {"sequence": "TGTTGCACGTGGTAGC", "relative binding free energy": 0.03}, {"sequence": "TAGCGCACGTGTGGTG", "relative binding free energy": -0.15}, {"sequence": "GGGCACACGTGTGATA", "relative binding free energy": 0.25}, {"sequence": "AGGTCCACGTGTGAGT", "relative binding free energy": 0.05}, {"sequence": "TGGAGCACGTGGTATC", "relative binding free energy": -0.2}, {"sequence": "TTTCGCACGTGGTAGG", "relative binding free energy": -0.11}, {"sequence": "CTGTGCACGTGTTATT", "relative binding free energy": -0.1}, {"sequence": "ATTGCCACGTGAGAGG", "relative binding free energy": 0.2}, {"sequence": "GTCAGCACGTGCGGTG", "relative binding free energy": -0.14}, {"sequence": "TATTTCACGTGCGTAA", "relative binding free energy": 0.06}, {"sequence": "CTGGGCACGTGGAGCG", "relative binding free energy": -0.24}, {"sequence": "GTGTGCACGTGGGAGT", "relative binding free energy": -0.15}, {"sequence": "ATCTACACGTGTTATG", "relative binding free energy": 0.1}, {"sequence": "GTGTTCACGTGCTTTC", "relative binding free energy": 0.37}, {"sequence": "TTTACCACGTGGATTG", "relative binding free energy": -0.08}, {"sequence": "GGTGACACGTGAGTGG", "relative binding free energy": 0.23}, {"sequence": "GACTTCACGTGGGAGT", "relative binding free energy": 0.35}, {"sequence": "TAGTGCACGTGATTCT", "relative binding free energy": 0.18}, {"sequence": "TGATCCACGTGATTGT", "relative binding free energy": 0.12}, {"sequence": "TGGGCCACGTGGTTCG", "relative binding free energy": -0.05}, {"sequence": "AGCTGCACGTGGAATG", "relative binding free energy": 0.01}, {"sequence": "GATTACACGTGAGGGA", "relative binding free energy": 0.34}, {"sequence": "TTGGTCACGTGTTGGG", "relative binding free energy": 0.14}]}]}
